Laboratory results as given in a collection of fitness landscapes (doi:10.1126/science.1257360).
The list shows a part of the results.

B1: PhoQ; a variant is named by its letters at X, in order, P23837 (parent)
chain: MKKLLRLFFPLSLRVRFLLATAAVVLVLSLAYGMVALIGYSVSFDKTTFRLLRGESNLFYTLAKWENNKLHVELPENIDKQSPTMTLIYDENGQLLWAQRDVPWLMKMIQPDWLKSNGFHEIEADVNDTSLLLSGDHSIQQQLQEVREDDDDAEMTHSVAVNVYPATSRMPKLTIVVVDTIPVELKSSYMVWSWFIYVLSANLLLVIPLLWVAAWWSLRPIEALAKEVRELEEHNRELLNPATTRELTSLVRNLNRLLKSERERYDKYRTTLTDLTHSLKTPLXXLQXXLRSLRSEKMSVSDAEPVMLEQISRISQQIGYYLHRASMRGGTLLSRELHPVAPLLDNLTSALNKVYQRKGVNISLDISPEISFVGEQNDFVEVMGNVLDNACKYCLEFVEISARQTDEHLYIVVEDDGPGIPLSKREVIFDRGQRVDTLRPGQGVGLAVAREITEQYEGKIVAGESMLGGARMEVIFGRQHSAPKDE

Variants of: B1
Assay: enrichment ratio after two sorts for PhoP signalling (ratio (wild type AVST 3.29)); higher = more functional
Conditions: with PhoP (E. coli)

| Variant | enrichment ratio |
| --- | --- |
| QHGR | ≤ 0.25 |
| AQTN | ≤ 0.25 |
| IYWM | ≤ 0.25 |
| TQGY | 4.58 |
| VDEH | ≤ 0.25 |
| CCHL | ≤ 0.25 |
| SWLC | ≤ 0.25 |
| IKRM | ≤ 0.25 |
| VKCH | ≤ 0.25 |
| QADW | ≤ 0.25 |
| YKRV | ≤ 0.25 |
| FHNI | ≤ 0.25 |
| VTFC | ≤ 0.25 |
| HERH | ≤ 0.25 |
| AGAR | ≤ 0.25 |
| LPCY | ≤ 0.25 |
| FADF | ≤ 0.25 |
| YMVK | ≤ 0.25 |
| HPTT | ≤ 0.25 |
| VLEI | ≤ 0.25 |
| LNEL | ≤ 0.25 |
| HCEF | ≤ 0.25 |
| VARQ | ≤ 0.25 |
| RFLC | 0.262 |
| HTWC | ≤ 0.25 |

| Variant | enrichment ratio |
| --- | --- |
| IFMW | ≤ 0.25 |
| GKMV | ≤ 0.25 |
| VESQ | ≤ 0.25 |
| AKHA | ≤ 0.25 |
| ERDL | ≤ 0.25 |
| WQLD | ≤ 0.25 |
| MFMP | ≤ 0.25 |
| FVYF | ≤ 0.25 |
| QHRH | ≤ 0.25 |
| LHIE | ≤ 0.25 |
| LEAY | ≤ 0.25 |
| PPMS | ≤ 0.25 |
| YYCH | ≤ 0.25 |
| ASCT | 11.1 |
| TGVG | 4.28 |
| CLIH | ≤ 0.25 |
| MGYR | ≤ 0.25 |
| VHSG | ≤ 0.25 |
| ASNQ | ≤ 0.25 |
| MLCK | ≤ 0.25 |
| KFKT | ≤ 0.25 |
| WSVH | ≤ 0.25 |
| WARL | ≤ 0.25 |
| FGPY | ≤ 0.25 |
| KRHR | ≤ 0.25 |

| Variant | enrichment ratio |
| --- | --- |
| NRDG | ≤ 0.25 |
| GAMH | ≤ 0.25 |
| MNRP | ≤ 0.25 |
| YTDI | ≤ 0.25 |
| SPDY | ≤ 0.25 |
| QINS | ≤ 0.25 |
| RLNM | ≤ 0.25 |
| MNAA | 8.61 |
| VASQ | ≤ 0.25 |
| QYTC | ≤ 0.25 |
| DQQT | ≤ 0.25 |
| LCKT | ≤ 0.25 |
| LGGV | ≤ 0.25 |
| GTGS | 0.373 |
| TIGG | 6.69 |
| SNVW | 1.56 |
| ASPY | ≤ 0.25 |
| PHLD | ≤ 0.25 |
| ARVL | 4.97 |
| HHHY | ≤ 0.25 |
| EKKV | ≤ 0.25 |
| PQWF | ≤ 0.25 |
| ADLE | ≤ 0.25 |
| SVYW | 0.759 |
| FLRW | ≤ 0.25 |

| Variant | enrichment ratio |
| --- | --- |
| HYTS | ≤ 0.25 |
| MYGT | ≤ 0.25 |
| GENS | ≤ 0.25 |
| HPPQ | ≤ 0.25 |
| LNYK | ≤ 0.25 |
| MIVQ | ≤ 0.25 |
| RDQS | ≤ 0.25 |
| YAVE | ≤ 0.25 |
| WYRQ | ≤ 0.25 |
| ADGR | ≤ 0.25 |
| MTWI | 10.2 |
| PGMQ | ≤ 0.25 |
| QALC | 10.7 |
| YVRY | ≤ 0.25 |
| SCMC | 12.6 |
| SYAR | ≤ 0.25 |
| ALIG | ≤ 0.25 |
| DLMH | ≤ 0.25 |
| LDIW | ≤ 0.25 |
| PIIK | ≤ 0.25 |
| GVSD | ≤ 0.25 |
| REPT | ≤ 0.25 |
| VQMV | ≤ 0.25 |
| DHEG | ≤ 0.25 |
| YEPK | ≤ 0.25 |

| Variant | enrichment ratio |
| --- | --- |
| TAMD | 6.3 |
| FLAL | ≤ 0.25 |
| VSMS | 0.859 |
| ITEI | ≤ 0.25 |
| TEAM | 16.4 |
| IWPY | ≤ 0.25 |
| VFAF | ≤ 0.25 |
| ANEF | ≤ 0.25 |
| LMPF | ≤ 0.25 |
| DNNE | ≤ 0.25 |
| PMTH | ≤ 0.25 |
| YHFR | ≤ 0.25 |
| YFEM | ≤ 0.25 |
| KRIR | ≤ 0.25 |
| VVKR | ≤ 0.25 |
| TYPQ | ≤ 0.25 |
| SLQM | 7.14 |
| TICW | ≤ 0.25 |
| EAPA | ≤ 0.25 |
| EDVF | ≤ 0.25 |
| HPNG | ≤ 0.25 |
| AMTR | 2.89 |
| MGEP | ≤ 0.25 |
| QSYW | ≤ 0.25 |
| PESR | ≤ 0.25 |

| Variant | enrichment ratio |
| --- | --- |
| QKNW | ≤ 0.25 |
| PHAA | ≤ 0.25 |
| FWTV | ≤ 0.25 |
| QKRR | ≤ 0.25 |
| KQIM | ≤ 0.25 |
| VCVY | ≤ 0.25 |
| IHTC | ≤ 0.25 |
| YLST | ≤ 0.25 |
| GLFH | ≤ 0.25 |
| FKQA | ≤ 0.25 |
| RVYA | ≤ 0.25 |
| NMWN | ≤ 0.25 |
| WSCD | ≤ 0.25 |
| SVIT | ≤ 0.25 |
| RLIM | ≤ 0.25 |
| TWQA | ≤ 0.25 |
| PQTQ | ≤ 0.25 |
| QWSF | ≤ 0.25 |
| HDRQ | ≤ 0.25 |
| HLVF | 1.11 |
| NTDG | ≤ 0.25 |
| FHHP | ≤ 0.25 |
| HRYV | ≤ 0.25 |
| MIRW | ≤ 0.25 |
| YEYA | ≤ 0.25 |

| Variant | enrichment ratio |
| --- | --- |
| SWNA | ≤ 0.25 |
| AHHS | ≤ 0.25 |
| EAYE | ≤ 0.25 |
| PIEM | ≤ 0.25 |
| INNA | ≤ 0.25 |
| GPDR | ≤ 0.25 |
| PSLH | ≤ 0.25 |
| IAHD | ≤ 0.25 |
| QQAN | ≤ 0.25 |
| FVTQ | ≤ 0.25 |
| AYNH | ≤ 0.25 |
| MSYL | 11 |
| MGEV | ≤ 0.25 |
| QNIW | ≤ 0.25 |
| AKWL | ≤ 0.25 |
| YNWT | ≤ 0.25 |
| MPGM | ≤ 0.25 |
| LFYS | ≤ 0.25 |
| QSPH | ≤ 0.25 |
| DYMD | ≤ 0.25 |
| KQDL | ≤ 0.25 |
| TQND | ≤ 0.25 |
| HNMI | ≤ 0.25 |
| NFFK | 2.51 |
| TDCW | ≤ 0.25 |

| Variant | enrichment ratio |
| --- | --- |
| HEYS | ≤ 0.25 |
| TPFH | ≤ 0.25 |
| SYVT | ≤ 0.25 |
| GIWD | ≤ 0.25 |
| HNLA | ≤ 0.25 |
| RCFP | ≤ 0.25 |
| DGIY | ≤ 0.25 |
| DFTN | ≤ 0.25 |
| DSVW | ≤ 0.25 |
| LELK | ≤ 0.25 |
| KDNN | ≤ 0.25 |
| PRWM | ≤ 0.25 |
| DKNH | ≤ 0.25 |
| DQVM | ≤ 0.25 |
| GHHM | ≤ 0.25 |
| RMWR | ≤ 0.25 |
| MNSY | ≤ 0.25 |
| GHTL | ≤ 0.25 |
| DDQL | ≤ 0.25 |
| RGMN | ≤ 0.25 |
